{"source": "PubChem BioAssay AID651820", "about": "(National Center for Advancing Translational Sciences (NCATS), 2012)", "note": "In all, about 340,000 compounds went through this assay and about 12,000 (3.5%) were called active. The inconclusive results got no clear call from the source; some entries with a clear call stand among them for comparison. Calls follow the shape of the dose curve; as a rule, active = well fitted inhibition curve with a large enough effect; inconclusive = small, poorly fitted or top-dose-only effect, or another doubt; inactive = no such curve, though single readings can be large or run the other way. No potency is given beside an inconclusive call; the fits are too rough. % is scaled to controls: 0 for no effect and ±100 for the full control effect; potency is read from the fitted curve at half-maximal effect; tags tell the direction and shape of the fitted curve.", "data": [{"experiment": "qHTS Assay for Inhibitors of Hepatitis C Virus (HCV)", "settings": "Huh7.5.1 HCVcc-Cre (HCVcc is cell-culture hepatitis C virus) infection, luciferase reporter, 44 h; activity change, negative = inhibition: at 41.8 µM (top of the series)", "summary_of_the_method": "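Reporter virus HCVcc-Cre (~0.5 moi) infects cells exposed to compound; seeding density 1,000 cells/well with 4 h settling beforehand. Luminescence, 15 sec read, taken 44 h post-infection following a 15 min RT substrate incubation.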", "values": [{"molecule": "CCCOc1ccc(Oc2ccc(S(=O)(=O)N3CCN(C)CC3)cn2)cc1", "Potency": "inconclusive [inhibitor, single point]"}, {"molecule": "OC(c1cc(-c2ccc(Cl)cc2)nc2ccccc12)C1CCCCN1", "note": "(stereo not given)", "Potency": "inconclusive [inhibitor, single point]"}, {"molecule": "O=C1C=C(c2cccs2)C[C@H](c2ccccc2)[C@H]1n1nnc([N+](=O)[O-])n1", "Potency": "inconclusive [inhibitor, single point]"}, {"molecule": "NC(=O)c1ccccc1NC(=O)CCCc1ccccc1", "activity change, negative = inhibition": "inactive: -7.22%"}, {"molecule": "Cc1ccc(C(=O)Nc2ccc(N3CCN(C(=O)c4cccs4)CC3)cc2)c(Cl)c1", "Potency": "inconclusive [inhibitor, partial curve]"}, {"molecule": "COc1ccc(-c2nnn(CC(=O)N3CCN(c4ccccc4OC)CC3)n2)cc1", "Potency": "inconclusive [inhibitor, single point]"}, {"molecule": "O=C(c1cnn2c(-c3ccccc3)cc(-c3ccccc3)nc12)N1CCN(Cc2ccccc2)CC1", "Potency": "inconclusive [inhibitor, single point]"}, {"molecule": "CC(C)CCN1CCN(Cc2cn[nH]c2C2CCCCC2)CC1CCO", "note": "(stereo not given)", "Potency": "inconclusive [inhibitor, single point]"}, {"molecule": "CC(OC(=O)c1ncc(Cl)c(Cl)c1Cl)C(=O)NC1(C#N)CCCCC1", "note": "(stereo not given)", "Potency": "inconclusive [inhibitor, single point]"}, {"molecule": "S=C(NCCc1ccccn1)Nc1cccc(Cl)c1", "activity change, negative = inhibition": "inactive: -29.8%"}, {"molecule": "COc1ccc(C(=O)OC2C(OC)OCC(O)C2O)cc1", "note": "(stereo not given)", "Potency": "inconclusive [inhibitor, full curve]"}, {"molecule": "O=C(COc1ccccc1)c1cn(CC(=O)N2CCOCC2)c2ccccc12", "Potency": "inconclusive [inhibitor, partial curve]"}, {"molecule": "Oc1cncc(Cc2ccccc2)c1", "activity change, negative = inhibition": "inactive: 31.8%"}, {"molecule": "O=C(Nc1ccc(-c2csc(-c3ccccc3)n2)cc1)c1ccccc1Cl", "Potency": "inconclusive [inhibitor, single point]"}, {"molecule": "Cc1cccc2cc(CN(C(=O)c3cnccn3)C3CCCCC3)c(Cl)nc12", "Potency": "inconclusive [inhibitor, single point]"}, {"molecule": "COc1ccc(Cn2c(C3CC3)nc3ccc(NC(=O)c4ccco4)cc3c2=O)cc1", "Potency": "inconclusive [inhibitor, single point]"}, {"molecule": "O=C(COc1ccc(CO)cc1Cl)Nc1ccc(F)cc1", "activity change, negative = inhibition": "inactive: -4.19%"}, {"molecule": "Cc1cc(C(=O)OCC(=O)N(C)c2c(N)n(Cc3ccccc3)c(=O)[nH]c2=O)c(C)n1-c1ccccc1", "Potency": "inconclusive [inhibitor, partial curve]"}, {"molecule": "CC1N(C)c2cc(NC(=O)c3ccco3)ccc2C1(C)C", "note": "(stereo not given)", "activity change, negative = inhibition": "inactive: -27.9%"}, {"molecule": "O=C(O)c1ccc(-c2nc3ccccc3s2)o1", "activity change, negative = inhibition": "inactive: 12.9%"}, {"molecule": "CNC(=S)Nc1ccc(C23CC4CC(CC(C4)C2)C3)cc1", "Potency": "inconclusive [inhibitor, partial curve, poor fit]"}, {"molecule": "Clc1ccccc1-c1nc(-c2ccccc2)n[nH]1", "Potency": "inconclusive [inhibitor, single point]"}, {"molecule": "O=c1cc[nH]c2cc(C(F)(F)F)ccc12", "activity change, negative = inhibition": "inactive: 17.3%"}, {"molecule": "CCN(CC)c1ccc(C(=O)n2cnc3ccccc32)cc1", "Potency": "inconclusive [inhibitor, partial curve, poor fit]"}, {"molecule": "CSc1nc(O)c(/C=C2\\C=Nc3ccccc32)[nH]1", "Potency": "inconclusive [inhibitor, single point]"}, {"molecule": "CC(=O)Nc1nnc(-c2ccc3c(c2)CCCC3)o1", "activity change, negative = inhibition": "inactive: 10.4%"}, {"molecule": "Cc1cc(N2CCN(C)CC2)nc2ccc(NC(=S)N3CCN(c4cccc(Cl)c4)CC3)cc12", "activity change, negative = inhibition": "inactive: 11%"}, {"molecule": "CC(C)CCc1noc(CN(C)CC2CCN(Cc3ccccc3)CC2)n1", "Potency": "inconclusive [inhibitor, partial curve]"}, {"molecule": "CCCn1nc(NC(C)=O)c2cc3cccc(C)c3nc21", "Potency": "active: 11.2 µM"}, {"molecule": "Cc1noc(C)c1COC(=O)c1ccccc1NC(=O)Cc1ccccc1", "Potency": "inconclusive [inhibitor, single point]"}, {"molecule": "COc1cccc(-n2nnc3c(=O)n(Cc4ccc(Br)cc4)cnc32)c1", "Potency": "inconclusive [inhibitor, single point]"}, {"molecule": "Cc1ccc2[nH]c(CSc3ccccc3)cc(=O)c2c1", "Potency": "inconclusive [inhibitor, partial curve]"}, {"molecule": "CC1(C(=O)OCC(=O)Nc2nc(-c3ccc(F)c(F)c3)cs2)CC1(Cl)Cl", "note": "(stereo not given)", "Potency": "inconclusive [inhibitor, single point]"}, {"molecule": "CCOc1ccccc1C(=O)N1CCC(n2nnc3cc(C(F)(F)F)ccc32)CC1", "Potency": "inconclusive [inhibitor, single point]"}, {"molecule": "CC(Sc1nnnn1-c1ccc(Cl)cc1)C(=O)NCC(=O)Nc1ccc(F)c(F)c1F", "note": "(stereo not given)", "Potency": "inconclusive [inhibitor, partial curve]"}, {"molecule": "COc1ccc(C(=S)N2CCCC2)cc1", "Potency": "inconclusive [inhibitor, single point]"}, {"molecule": "C=CCn1cccc(C(=O)Nc2ccc(F)cc2)c1=O", "Potency": "inconclusive [inhibitor, single point]"}, {"molecule": "COc1ccccc1-c1nnc(NC(=O)c2ccc(S(=O)(=O)N(C)Cc3ccccc3)cc2)o1", "Potency": "inconclusive [inhibitor, single point]"}, {"molecule": "Cn1nc(C(F)(F)F)c2cc(C(=O)Nc3ccc(C(F)(F)F)cc3)sc21", "Potency": "inconclusive [inhibitor, partial curve]"}, {"molecule": "COC(=O)Cn1c(=NC(=O)c2ccc(OC)c(OC)c2)sc2cc(OC)ccc21", "Potency": "inconclusive [inhibitor, full curve, poor fit]"}, {"molecule": "Cc1cc(Br)ccc1SCC(=O)OCC(O)=C(C#N)c1nc2ccccc2[nH]1", "activity change, negative = inhibition": "inactive: 7.3%"}, {"molecule": "CCN1CCC(NC(=O)Nc2ccccc2C(=O)OC)CC1", "activity change, negative = inhibition": "inactive: 12.6%"}, {"molecule": "CCC1CCCCN1C(=O)c1cc(COc2ccc(-n3cncn3)cc2)on1", "note": "(stereo not given)", "Potency": "active: 31.6 µM"}, {"molecule": "C(=N\\N1CCN(Cc2ccccc2)CC1)/c1ccccc1", "activity change, negative = inhibition": "inactive: 13.5%"}, {"molecule": "COc1ccc(-c2cc(-c3cccs3)nc3sc(C#N)c(N)c23)cc1", "Potency": "inconclusive [inhibitor, single point]"}, {"molecule": "COc1ccc(Cn2c(-c3ccc(OC)cc3)nc3ccccc32)cc1", "Potency": "inconclusive [inhibitor, partial curve]"}, {"molecule": "COCCn1c(SCC(=O)Nc2cc(C)cc(C)c2)nc2ccccc2c1=O", "Potency": "inconclusive [inhibitor, partial curve]"}, {"molecule": "CCOC(=O)c1sc2nccc(N(C)C)c2c1N=CNOCc1ccccc1", "Potency": "active: 7.94 µM"}, {"molecule": "Cc1cc(C)n(-c2ccn(Cc3ccc(Cl)cc3Cl)c(=O)n2)n1", "Potency": "inconclusive [inhibitor, single point]"}, {"molecule": "Cc1ccc(C(=O)N2[C@@H]3CN(C)C(=O)[C@@]2(Cc2ccccc2)[C@H]2C(=O)N(Cc4ccccc4)C(=O)[C@@H]32)cc1", "Potency": "inconclusive [inhibitor, single point]"}, {"molecule": "COc1ccccc1NC(=O)C(Sc1ccccc1)c1ccccc1", "note": "(stereo not given)", "activity change, negative = inhibition": "inactive: -11.4%"}, {"molecule": "COc1ccc(N(C(=O)Cn2nnc(-c3ccc(F)cc3)n2)C(C)C(=O)NC2CCCC2)cc1", "note": "(stereo not given)", "Potency": "inconclusive [inhibitor, single point]"}, {"molecule": "C/C(=N\\NC(=O)c1cccnc1)c1ccc(OC2OCCOC2Oc2ccc(/C(C)=N/NC(=O)c3cccnc3)cc2)cc1", "note": "(stereo not given)", "Potency": "inconclusive [inhibitor, single point]"}, {"molecule": "CS(=O)(=O)Nc1cccc2cccnc12", "activity change, negative = inhibition": "inactive: 24.2%"}, {"molecule": "COc1ccc(-c2cc(-c3ccc(O)cc3)nc(N)c2C#N)cc1OC", "Potency": "inconclusive [inhibitor, single point]"}, {"molecule": "Cc1nn(Cc2ccc(Cl)c(Cl)c2)c(C)c1NC(=O)c1cc(-c2ccc3c(c2)OCO3)on1", "Potency": "inconclusive [inhibitor, partial curve]"}, {"molecule": "CCOC(=O)c1c(C)[nH]c(C(=O)OCC(=O)Nc2cccnc2Cl)c1C", "Potency": "inconclusive [inhibitor, full curve]"}, {"molecule": "CCOC(=O)c1c(NC(=O)CN2CCCc3ccccc32)sc(C)c1CC", "Potency": "inconclusive [inhibitor, partial curve]"}, {"molecule": "Cc1cccc(NC(=O)CSCC(=O)N(C)CC(=O)Nc2cccc(F)c2)c1", "activity change, negative = inhibition": "inactive: 4.38%"}, {"molecule": "CCOC(=O)C[C@H]1c2cc(F)ccc2S(=O)(=O)N1Cc1ccc(OC)cc1", "Potency": "inconclusive [inhibitor, single point]"}, {"molecule": "Cc1ccc(C2=NC(C)(C)N=C2SCC(=O)Nc2ccc(Cl)cc2)cc1", "Potency": "inconclusive [inhibitor, single point]"}, {"molecule": "O=C(NC1CCCCC1)c1cc(N2C(=O)CCC2=O)ccc1Cl", "activity change, negative = inhibition": "inactive: 0.952%"}, {"molecule": "CC(C)CC(=O)c1c[nH]c(C(=O)NCCc2ccccn2)c1", "activity change, negative = inhibition": "inactive: 4.22%"}, {"molecule": "O=C(NCC1COc2ccccc2O1)C1CCN(S(=O)(=O)c2ccc(Cl)cc2)CC1", "note": "(stereo not given)", "Potency": "active: 11.2 µM"}, {"molecule": "COc1cc(NC(=O)CCCn2c(=O)oc3ccccc32)cc(OC)c1", "Potency": "inconclusive [inhibitor, single point]"}, {"molecule": "Cc1nnc(C)c2c(C)n(C(C)c3ccccc3)c(C)c12", "note": "(stereo not given)", "Potency": "active: 10 µM"}, {"molecule": "COc1ccc(CN2CCN(Cc3ccc(Br)cc3)CC2)c(OC)c1OC", "Potency": "active: 12.6 µM"}, {"molecule": "CC1CC(C)CN(CCOc2cccc(Cl)c2Cl)C1", "note": "(stereo not given)", "Potency": "inconclusive [inhibitor, partial curve]"}, {"molecule": "C/C(=N\\Nc1nc(N2CCCCCC2)nc(N2CCCCCC2)n1)c1ccccc1", "Potency": "inconclusive [inhibitor, single point]"}, {"molecule": "CCOc1cc(/C=N/NC(=O)c2cc3c(ccc4ccccc43)o2)ccc1O", "Potency": "inconclusive [inhibitor, single point]"}]}]}
